Test results: PubChem BioAssay AID652104 (National Center for Advancing Translational Sciences (NCATS), 2013)
Among all 410,000 compounds or so, about 7,200 (1.8%) were called active. The inconclusive results got no clear call from the source; some entries with a clear call stand among them for comparison. Calls follow the shape of the dose curve; as a rule, active = well fitted activation curve with a large enough effect; inconclusive = small, poorly fitted or top-dose-only effect, or another doubt; inactive = no such curve, though single readings can be large or run the other way. No potency is given beside an inconclusive call; the fits are too rough. Non-standard residues stand in square brackets, D forms with d. Residues, ends and D or L forms follow the SMILES beside them. *: point of attachment. Tic = O=C(O)[C@@H]1Cc2ccccc2CN1; NHPr = CCCN*

experiment: qHTS of TDP-43 Inhibitors; settings: TDP-43 expressing yeast growth rescue, BacTiter-Glo, 24 h; growth rescue (activation): at 46.1 µM (top of the series) unless noted; also: nearly all actives have a fitted effect of over 50% in size; as to growth rescue (activation): % of control where 0% means no effect
In short: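 Yeast cells expressing TDP-43 under galactose induction are exposed to compounds for 24 hr at 30 deg C. BacTiter-Glo luminescence measures growth, so protective compounds score as activators.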
Potency is read from the fitted curve at half-maximal effect; tags tell the direction and shape of the fitted curve.

SMILES	Potency	growth rescue (activation)
C=Cc1ccc(C(=O)N2CCCC(CCC(=O)N3CCN(c4ccccn4)CC3)C2)cc1 (stereo not given)	active: 3.55 µM	–
O=C(Nc1ccc(-c2nc3ncccc3o2)cc1)c1ccco1	inconclusive [activator, partial curve]	–
CCOC(=O)c1cc(-c2ccccc2)n(CCC(=O)Nc2ccc(Cl)c(C(F)(F)F)c2)c1C	–	inactive: 20.7%
Cc1cccc(NS(=O)(=O)c2ccc(-n3cccn3)cc2)c1C	inconclusive [activator, full curve, poor fit]	–
Cc1cccc(N2CCN(C(=O)c3cccc(S(=O)(=O)N4CCCCC4)c3)CC2)c1C	active: 7.08 µM	–
Cc1c(C)c2ccc(OCC(=O)N3CCN(c4ccccc4)CC3)cc2oc1=O	inconclusive [activator, single point]	–
CCOc1ccc(CNC(=O)c2ccc(NC(=O)N3CCCCc4ccccc43)cc2)cc1OC	inconclusive [activator, partial curve, poor fit]	–
O=C(CCc1nc2cccnc2n1Cc1cccs1)Nc1cccc(Cl)c1	inconclusive [activator, partial curve]	–
CCc1ccc(OS(=O)(=O)c2cn(C)c(=O)n(C)c2=O)cc1	inconclusive [activator, single point]	–
CN(C)c1ccc(C(=S)N2CCCC2)cc1Br	inconclusive [activator, single point]	–
O=C(CSc1cccc[n+]1[O-])c1ccc(-c2ccccc2)cc1	–	inconclusive: -87.2% [activator]
CCc1nnc(NC(=O)c2nc(SCc3ccccc3C)ncc2Cl)s1	inconclusive [activator, single point]	–
CCCNC(=O)[C@@H]1CCCN1C(=O)[C@@H]1Cc2ccccc2CN1 (H-[Tic]-Pro-NHPr)	inconclusive [activator, partial curve]	–
CCCNC(=O)C1CCN(c2ncnc3c2nc2n3CCCCC2)CC1	inconclusive [activator, full curve, poor fit]	–
C1=C(c2ccccc2)Nc2ncnn2C1c1ccccc1 (stereo not given)	active: 20 µM	–
Cn1c(SCc2nnc(-c3ccc(F)cc3)o2)nnc1C1COc2ccccc2O1 (stereo not given)	inconclusive [activator, single point]	–
Clc1ccc(-c2nc3ccc(Cl)cn3c2Cc2cccc(Cl)c2)cc1	active: 25.1 µM	–
COc1cc(NC(=O)COc2cccc3c2OC(C)(C)C3)cc(OC)c1OC	inconclusive [activator, single point]	–
Cc1onc(-c2c(Cl)cccc2Cl)c1C(O)c1ccccc1 (stereo not given)	active: 11.2 µM	–
COc1ccc(C(=O)N2CCCc3ccccc32)cc1Br	inconclusive [activator, single point]	–
N#Cc1cccc(NC(=O)c2cc(C3CCCCN3C(=O)CCc3ccccc3)on2)c1 (stereo not given)	inconclusive [activator, partial curve]	–
O=C(c1ccccc1)c1coc2ccc(O)c(Cl)c12	inconclusive [activator, single point]	–
Cc1cc(C)cc(Cn2c3ccc(NC(=S)NCc4ccccc4F)cc3c(=O)n2C)c1	inconclusive [activator, full curve]	–
COc1cccc(-c2nc(CSCC(=O)N3CCc4ccccc43)c(C)o2)c1	inconclusive [activator, single point]	–

SMILES	Potency	growth rescue (activation)
Cc1oc(-c2ccc(Cl)cc2)nc1CSCC(=O)NCc1ccccc1Cl	–	inactive: 1.74%
O=C(c1cc2ccccc2o1)N(C1CC1)C1(C(=O)Nc2ccccc2)CCCC1	inconclusive [activator, single point]	–
N#Cc1ccc(-c2ccc(OCC(=O)NCCCN3CCCC3=O)cc2)cc1	active: 12.6 µM	–
Cc1ccc2c(CC(=O)N(Cc3ccc(Cl)cc3)Cc3ccco3)coc2c1	inconclusive [activator, single point]	–
CC1CCN(c2cc(N)c(Cl)cc2[N+](=O)[O-])CC1	active: 17.8 µM	–
Cc1ccccc1Nc1cc(C(=O)NCCc2ccc(Cl)cc2)c2ccccc2n1	active: 17.8 µM	–
CCc1cc(C(=O)Nc2nc(-c3ccccn3)cs2)sc1C	inconclusive [activator, single point]	–
COc1ccc2ncc(S(=O)(=O)c3ccccc3)c(N3CCC4(CC3)OCCO4)c2c1	active: 17.8 µM	–
CCN1CCN(Cc2c(O)ccc3oc(C)c(C(=O)Nc4ccc(C)cc4C)c23)CC1	–	inactive: 9.49%
Cc1cccc(OCC(=O)Nc2ccc(Cl)c(-c3nc4ccccc4[nH]3)c2)c1	active: 35.5 µM	–
COC(=O)C12CCC(C)(c3nc4ccccc4nc31)C2(C)C (stereo not given)	inconclusive [activator, partial curve]	–
CS(=O)(=O)Nc1ccccc1-c1ccc2nccn2c1	–	inactive: 14.8%
CN1CCc2nc3sc(C(=O)Nc4cccc(C#N)c4)c(N)c3cc2C1	active: 17.8 µM	–
Oc1ccc(/C=C/c2ccnc3ccccc23)cc1	inconclusive [activator, partial curve]	–
COc1ccccc1NC(=O)Cn1c(=O)n(-c2cccc(Cl)c2)c(=O)c2c1c1cc(C)ccc1n2C	–	inactive: 20.4%
CSCC[C@H](NC(=O)N1CCn2c1nc1ccccc12)C(=O)NCC1CCCO1 (stereo not given in full)	inconclusive [activator, single point]	–
CCOc1ccc(S(=O)(=O)NCc2ccc(Cl)cc2)c2cccnc12	–	inactive: 0.63%
COc1ccc(C)cc1NC(=O)N1CCN(c2cc(-c3noc(C)n3)ccc2C)CC1	inconclusive [activator, partial curve]	–
O=[N+]([O-])c1ccccc1S(=O)(=O)c1ccccc1	inconclusive [activator, partial curve]	–
CC(C)(C)OC(=O)N1CCC(NC(=O)c2[nH]cnc2C(=O)Nc2ccccc2)CC1	inconclusive [activator, full curve, poor fit]	–
CCOC(=O)C1CCN(C(=O)c2ccc3c(c2)C(=O)N(c2ccccc2C)C3=O)CC1	–	inconclusive: 30.4% [activator]
CNc1nc(-c2ccccc2)cc(-c2ccccc2)n1	inconclusive [activator, partial curve]	–
Cc1ccc2nc(-c3cccc(Br)c3)cc(C(=O)NC3=NCCS3)c2c1	active: 20 µM	–
Cc1oc(-c2cccs2)nc1CS(=O)CC(=O)NCCCOC(C)C (stereo not given)	inconclusive [activator, partial curve, poor fit]	–

SMILES	Potency	growth rescue (activation)
CC(C)(O)CC[C@@H](O)[C@](C)(O)[C@H]1CC[C@@]2(O)C3=CC(=O)[C@@H]4C[C@@H](O)[C@@H](O)C[C@]4(C)C3CC[C@]12C (stereo not given in full)	inconclusive [activator, full curve, poor fit]	–
O=c1ccc(N=Nc2ccccc2)ccc1O	–	inactive: -94.5%
COc1cc(C)c(S(=O)(=O)NOCc2ccccc2)c(C)c1C	inconclusive [activator, partial curve]	–
CCCN(CC(=O)Nc1ccc(Cl)cc1Cl)C(=O)/C=C/c1cc(OC)ccc1OC	–	inactive: -24.1%
O=C(c1ccc(-c2ccc(Cl)cc2Cl)o1)N1CCOCC1	active: 17.8 µM	–
Nc1ccc2oc(CCc3ccccc3)nc2c1	active: 17.8 µM	–
CC(C)Nc1ncnc2c1nnn2Cc1ccccc1	inconclusive [activator, single point]	–
Cc1ccc(NC(=O)c2cc(S(=O)(=O)N3CCOCC3)c(Br)s2)cc1	inconclusive [activator, single point]	–
COc1ccc(-c2cc(N)n(S(=O)(=O)c3c(F)c(F)c(F)c(F)c3F)n2)cc1OC	inconclusive [activator, single point]	–
O=C(Cn1cc(C(=O)C2CC2)c2ccccc21)Nc1ccc(Br)cc1	–	inactive: -2.21%
CC(=O)Nc1ccc2c(c1)[nH]c(=O)c1ccccc12	–	inactive: 20.9%
COc1ccccc1N1CCN(c2ccc(-c3nc(-c4ccccc4)no3)cc2[N+](=O)[O-])CC1	–	inactive: 0.203%
Cc1[nH]n(-c2ccccc2)c(=O)c1/C=N/N1C(=O)c2ccc3c4c(ccc(c24)C1=O)CC3	active: 5.01 µM	–
CCOC(=O)Cc1csc(NC(=O)COc2ccc(C)c(C)c2)n1	inconclusive [activator, single point]	–
COc1cccc(Nc2sc(C(=O)c3ccc(F)cc3)c(N)c2C(=O)NCc2ccc(C)cc2)c1	–	inactive: 18.5%
COc1ccc(CN=C2NN=C(c3cccc(OC)c3)CS2)cc1	inconclusive [activator, single point]	–
Oc1c(C(c2ccccc2)N2CCCCC2)ccc2ccccc12 (stereo not given)	inconclusive [activator, partial curve, poor fit]	–
CCOC(=O)c1ccccc1NC(=O)c1sc2ccccc2c1Cl	inconclusive [activator, full curve, poor fit]	–
COc1ccc(N2CCN(C(=O)CN(C)S(=O)(=O)c3cccs3)CC2)cc1	inconclusive [activator, partial curve, poor fit]	–
Cc1ccc(S(=O)(=O)c2nc(-c3cccc(C)c3)oc2N2CCCCC2)cc1	–	inactive: 3.61%
Cc1cccc(CSC2=NCCN2S(=O)(=O)c2ccc(F)cc2)c1	inconclusive [activator, partial curve]	–
Cc1ccccc1-n1c(=O)c2c3c(sc2n2cnnc12)CCCC3	inconclusive [activator, full curve]	–
